Results on six molecules are retold here after publication PMC12136788.

The list shows a part of the results.

T1: UNK ZnF1-3 (human, UniProt Q9C0B0 31-174)
T1 sequence: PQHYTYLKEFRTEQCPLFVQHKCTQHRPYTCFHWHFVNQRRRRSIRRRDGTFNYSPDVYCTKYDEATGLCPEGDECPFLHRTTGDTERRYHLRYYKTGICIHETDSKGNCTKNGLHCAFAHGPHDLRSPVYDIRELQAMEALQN

B1: chr11:29607950:29607951:+_ENSMUSG00000020458_ENSMUST00000102843|mus_hu|FALSE|FALSE (ssRNA)
RNA: GGGAGUUCUACAGUCCGACGAUCAGGUGAGGAAUCUUCAACUAGCUCAGAAUGAUCAGGCACUGGCUGUUCAACUUUUGCCAUUUCUGAAUAAUCAGAGAAAUCCGGAGCUGGUUCAGCAGAAAGCUUUGUUUCUUUAAUUAACAACAGAGGAUUGAGCAUCA
B2: chr9:37441256:37441257:-_ENSG00000168795_ENST00000307750|hu_hu|motif|central (ssRNA)
RNA: GGGAGUUCUACAGUCCGACGAUCAGGCCCAGCCUCUGGACUCAACAAAUAGGGGGCCUCACUCUCCAGCCUGCAGUCACGGGUGGUGUUUGGAAUAUUAUCAUCAUUGUUCUGAUUUGCAGUAAAGUUAUUUCCUCUGCUCUUCAACAGAGGAUUGAGCAUCA
B3: 138058577_138059462_3783_3pUTR_ENSMUSG00000041642_ENSMUST00000075164|mouse|control|control (ssRNA)
RNA: GGGAGUUCUACAGUCCGACGAUCGGCCAGGGACUUGGUGAUGUUCUUGGUAGAGCUGUCCAAUGGGGGUCCUAGGCACUCCGCAGACACGGCCUUCAUCUGUGCGGAUAGCUUGGGCUCACCCUUGAACUUGAAGUCAUCGUGCAACAGAGGAUUGAGCAUCA
B4: 130808380_130808500_3123_CDS_ENSMUSG00000027312_ENSMUST00000028781|mouse|control|control (ssRNA)
RNA: GGGAGUUCUACAGUCCGACGAUCGGGCUGUGGAUACACAUUUCCUGCAGAGGCCUGUGACGGCAUCUUCACAGGUCCUUUAUAGCUGCCCUCAAUACAUUUUCCUUUCCCAGUAUUGCUAGGAUCAGUACACCAACCACAGCCCAACAGAGGAUUGAGCAUCA
B5: chr9:111179681:111179682:+_ENSMUSG00000046785_ENSMUST00000060711|mus_mus|FALSE|FALSE (ssRNA)
RNA: GGGAGUUCUACAGUCCGACGAUCGGACUUAACACUAGAGAGCUGAUUUUUGAGUACACCUAGGUUUGAAUCUUGACAUUACUACUAGUUUACUAGGGUAAAUUACAGUCUGUUUUCUUAACAACAUUCACAUAAUAUUUGAACCAACAGAGGAUUGAGCAUCA
B6: 62105671_62122614_689_CDS_ENSMUSG00000042298_ENSMUST00000050646|mouse|control|control (ssRNA)
RNA: GGGAGUUCUACAGUCCGACGAUCGGAGAAUAGCAGAUAGCGUGCACAAGAGUCUAAGCACAUACCAAGGAGGAGGUAAGUAUUGGCUGUUUCUUCUGACAUAAUAUCUUCUGCUAAUUCCUUUUCUCUUUCAAUUUUCCCCUCCAACAGAGGAUUGAGCAUCA

The target of this assay is T1, UNK ZnF1-3. As to the kind of experiment: nsRBNS (natural sequence RNA bind-n-seq); RBNS binding buffer (assumed for nsRBNS): 25 mM Tris pH 7.5, 150 mM KCl, 3 mM MgCl2, 0.01% Triton X-100, 500 ug/ml BSA, 20 U/ml SUPERase-In, 4 C; UNK is unkempt and MSI1 is Musashi-1; names of the RNAs are library labels; protein concentration not given here; high values mean tight binding.
Regarding B1, the binding signal amounted to 1.69 enrichment R.

Molecule B2 had a binding signal of 0.825 enrichment R.

B3 registered a binding signal of 0.657 enrichment R.

For B4, the binding signal is 0.866 enrichment R.

Regarding B5, the binding signal amounted to 0.712 enrichment R.

B6 had a binding signal of 1.26 enrichment R.
